Source: PubChem BioAssay AID624417 (National Center for Advancing Translational Sciences (NCATS), 2012)
Out of some 410,000 compounds screened, about 6,400 (1.6%) were called active. Inconclusive results, whose numbers are uncertain, are shown with a selection of clear calls. Calls come from the whole dose curve; as a rule, active = well fitted inhibition curve with a large enough effect; inconclusive = small, poorly fitted or top-dose-only effect; inactive = no such curve, though single readings can be large or run the other way. Potencies of inconclusive entries are left out as doubtful fits.

target: Glucagon-like peptide 1 receptor (Homo sapiens) (UniProt P43220); test: qHTS of GLP-1 Receptor Inverse Agonists (Inhibition Mode); details: HEK293 GLP-1R CRE-luciferase, luminescence, 24 h, GLP-1R form is constitutively active; series mostly up to 38.3 µM; note: nearly all actives have a fitted effect of over 55% in size
Sequence of UniProt P43220 (P43220 whole entry, looked up): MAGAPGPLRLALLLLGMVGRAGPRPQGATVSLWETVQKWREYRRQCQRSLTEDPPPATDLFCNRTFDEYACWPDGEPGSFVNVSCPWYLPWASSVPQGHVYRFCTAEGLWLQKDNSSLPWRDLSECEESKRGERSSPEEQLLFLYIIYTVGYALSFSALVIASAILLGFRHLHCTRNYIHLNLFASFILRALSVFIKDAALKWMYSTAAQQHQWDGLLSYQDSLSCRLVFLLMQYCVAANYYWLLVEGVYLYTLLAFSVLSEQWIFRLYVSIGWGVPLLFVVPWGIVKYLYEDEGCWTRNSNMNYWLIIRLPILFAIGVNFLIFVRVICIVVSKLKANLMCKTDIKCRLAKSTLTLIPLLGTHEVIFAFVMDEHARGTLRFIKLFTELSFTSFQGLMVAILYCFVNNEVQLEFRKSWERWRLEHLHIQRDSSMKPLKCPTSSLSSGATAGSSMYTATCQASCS
Method in brief: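 Readout was luciferase luminescence, measured 12 min after detection reagent at room temperature. Beforehand, GLP-1R reporter HEK293 cells had sat 12 h, then received compounds for 24 hr at 37 deg C.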
Potency is the fitted concentration of half-maximal effect; tags give direction and shape of the fitted curve.

SMILES	Potency
Cc1ccc2scc(N3CCCCC3C)c(=O)c2c1 (stereo not drawn)	inactive
C[C@@H](CN1C2=NC[C@H](Cc3ccccc3)N2C[C@H]1Cc1ccc(O)cc1)NC(=O)CCC1CCCCC1	inconclusive [inhibitor, single point]
Cc1snc(SCc2ccc(Cl)cc2)c1C#N	inconclusive [inhibitor, single point]
CCN(CC)S(=O)(=O)c1ccc(-c2nnc(SCc3nnc(-c4ccc(C)cc4)o3)n2CC)cc1	inactive
CC(C)(C)c1cc(NC(=O)COC(=O)c2ccccc2O)n(-c2ccccc2)n1	inconclusive [inhibitor, single point]
COC(=O)c1ccc2nc(C3CCCCC3)c(Cc3cccc(F)c3)n2c1	inconclusive [inhibitor, single point]
Cc1ccc2oc(C(=O)N(C)Cc3ccc(C)o3)c(C)c2c1	inconclusive [inhibitor, single point]
Cc1ccccc1CN1C(=O)c2ccccc2S(=O)c2ccc(C(=O)N3CCOCC3)cc21 (stereo not drawn)	inactive
CCCC(CNC(=O)COC(=O)C1=NNC(=O)CC1)c1ccc(Cl)cc1Cl (stereo not drawn)	inconclusive [inhibitor, partial curve, poor fit]
O=C1c2cccnc2C(O)N1Cc1ccc(F)cc1 (stereo not drawn)	inactive
CCNC(=S)N=Nc1c(O)n(Cc2ccc(Cl)cc2)c2ccccc12	inconclusive [inhibitor, single point]
CC1(C)N=C(N)N=C(N)N1c1ccc(OCCCOc2ccccc2)c(Cl)c1	inconclusive [inhibitor, single point]
O=C1C(Cl)=C(NC2CCCCC2)C(=O)N1c1ccc(Cl)cc1	inconclusive [inhibitor, partial curve, poor fit]
COCCCNC(=O)c1c(NC(=O)Cc2coc3cc(C)ccc23)sc2c1CCCC2	inconclusive [inhibitor, partial curve, poor fit]
CC1(C)Cc2c(cnn2-c2ccccc2)-c2c1c1ccccc1n2CC(O)CCl (stereo not drawn)	inconclusive [inhibitor, partial curve, poor fit]
COc1ccc(C(CNc2nc(-c3cccnc3)nc3ccccc23)N(C)C)cc1 (stereo not drawn)	inconclusive [inhibitor, single point]
Cc1ccc(NC(=O)CN2C(=O)NC3(CCCCCCC3)C2=O)cc1C	inconclusive [inhibitor, full curve]
O=C(Nc1ccc2c(c1)CCC2)C1CCCN(c2ncccn2)C1 (stereo not drawn)	inconclusive [inhibitor, partial curve, poor fit]
Cc1ccc(C)c(N2CCN(CCN3CCCCC3)CC2)c1	inconclusive [inhibitor, single point]
O=S(=O)(Nc1cccc2ccccc12)N1CCCC1	inconclusive [inhibitor, single point]
Cc1ccccc1-n1nc2c(c1NC(=O)C(C)(C)C)CS(=O)(=O)C2	inactive

SMILES	Potency
CC1CCN(C(=O)Cn2cc(SCC(=O)NCc3ccc(F)cc3)c3ccccc32)CC1	inconclusive [inhibitor, single point]
Cc1cccc(C2=NN(c3ccc(Br)cc3)[C@@H](C(=O)N3CCOC3=O)[C@@H]2C)c1	inconclusive [inhibitor, single point]
COc1cc(C(=O)NCCc2sc(-c3ccc(C)cc3)nc2C)cc(OC)c1OC	inactive
CN1CCN(Cc2cn(C)nc2-c2ccccc2F)CC1c1ccccc1 (stereo not drawn)	inconclusive [inhibitor, full curve]
CCOc1cccc(OCCCCn2ccnc2)c1	inconclusive [inhibitor, full curve, poor fit]
CCCCn1nnnc1C(c1cc2ccccc2o1)N(C)Cc1ccc(Cl)cc1 (stereo not drawn)	inconclusive [inhibitor, single point]
Cc1nnc(N2C(=O)c3oc4ccccc4c(=O)c3C2c2cccc(OCCC(C)C)c2)s1 (stereo not drawn)	inactive
COc1cccc(N/N=C/c2cccc(Br)c2O)c1	inconclusive [inhibitor, single point]
COc1ccc(C(=O)/C=C/Sc2nc3ccccc3o2)cc1	inactive
O=C(NCCCN1CCC(Cc2ccccc2)CC1)c1ccc2nc(N3CCOCC3)sc2c1	inconclusive [inhibitor, single point]
Cc1oc(-c2ccccc2)nc1C(=O)N1CCN(c2ccc(F)cc2)CC1	inconclusive [inhibitor, single point]
COc1ccc(NC(=O)C2Cc3c(-c4ccc5c(c4)OCO5)ccnc3O2)cc1 (stereo not drawn)	inconclusive [inhibitor, full curve, poor fit]
Cc1nc(N2CCN(C(=O)c3ccco3)CC2)c(C#N)c2c1CCCC2	inactive
O=C(CNc1ccccc1)N/N=C/c1c[nH]c2ccccc12	inconclusive [inhibitor, partial curve, poor fit]
CCN1/C(=C\c2ccc3ccccc3[n+]2CC)Sc2cc(C)ccc21	inconclusive [inhibitor, partial curve, poor fit]
COc1ccc(C(=O)N/N=C\c2ccc(OC)c(COc3ccccc3Br)c2)c(OC)c1	inconclusive [inhibitor, partial curve]
COc1cc2sc(-c3ccccc3OC)c(-c3ccc(OCCN4CCCCC4)cc3)c2cc1OC	inconclusive [inhibitor, partial curve, poor fit]
COC(=O)CC1(c2cccc3ccccc23)C(=O)c2ccccc2C1=O	inconclusive [inhibitor, partial curve, poor fit]
CC(CC(=O)Nc1cccc(S(=O)(=O)N2CCCCC2)c1)c1ccccc1 (stereo not drawn)	inconclusive [inhibitor, single point]
O=C(COc1ccc2oc3c(c2c1)CCCC3)Nc1cccc(Br)c1	inconclusive [inhibitor, single point]
CC1CCC(C(C)C)C(OC(=O)COC(=O)c2ccc(N)cc2)C1 (stereo not drawn)	inconclusive [inhibitor, partial curve, poor fit]

SMILES	Potency
c1ccc(Oc2nc(-c3cccnc3)nc3ccccc23)cc1	inconclusive [inhibitor, partial curve, poor fit]
Cc1c(Cl)cccc1NC(=O)CNc1ccccc1F	inconclusive [inhibitor, single point]
Cc1cc(=O)[nH]c2nnc(SCC(N)=O)n12	inactive
CCCS(=O)(=O)c1nc(S(=O)(=O)c2ccc(C)cc2)c(N2CCCCC2)s1	inconclusive [inhibitor, single point]
CC(=O)c1ccc(Oc2ncnc3c2oc2ccccc23)cc1	inactive
O=C(NCCC(=O)N(Cc1ccco1)Cc1cccs1)c1ccc(Br)cc1	inconclusive [inhibitor, partial curve, poor fit]
CCOC(=O)C1=C(C)N=C2SC(C(=O)OC)=CC(=O)N2C1c1ccc(F)cc1 (stereo not drawn)	inconclusive [inhibitor, single point]
COc1ccc(C(=O)N2c3ccc(F)cc3CCC2C)cc1OC (stereo not drawn)	inconclusive [inhibitor, single point]
Fc1cccc(Cc2c(C3CCCCC3)nc3ccc(Br)cn23)c1	inconclusive [inhibitor, partial curve, poor fit]
CCN(c1ccccc1)S(=O)(=O)c1ccc(C(=O)NCC(=O)Nc2ccc(F)c(F)c2F)cc1	inconclusive [inhibitor, partial curve, poor fit]
O=C1OCCN1C(=O)[C@H]1[C@H](c2ccc(Cl)cc2)C(c2ccc(F)cc2)=NN1c1ccccc1	inconclusive [inhibitor, partial curve, poor fit]
CC(C)C1NCCc2c1sc1ccccc21 (stereo not drawn)	inconclusive [inhibitor, partial curve, poor fit]
O=C(COc1ccccc1)NCC(c1ccco1)N1CCN(c2ccccc2F)CC1 (stereo not drawn)	inconclusive [inhibitor, single point]
O=C(Nc1cccc([N+](=O)[O-])c1)Nc1cccc([N+](=O)[O-])c1	inconclusive [inhibitor, partial curve]
CCOC(=O)Cc1csc(NC(=S)NC(=O)c2cc(OC)c(OC)c(OC)c2)n1	inactive
O=C(CN1CCCCC1)NC1CCc2cc3c(cc21)CCC3 (stereo not drawn)	inconclusive [inhibitor, partial curve, poor fit]
C=CCN(CC=C)S(=O)(=O)c1ccc(NC(=S)NC(=O)Cc2ccc(OC)cc2)cc1	inconclusive [inhibitor, single point]
CCc1ccc(NC(=O)CCc2c(C)nn(-c3ccc(N4CCCC4)nn3)c2C)cc1	inactive
Cn1ccc2c(-c3ccccc3F)cc3c(c21)C1CCC3C1 (stereo not drawn)	inconclusive [inhibitor, partial curve, poor fit]
O=C(c1ccc(S(=O)(=O)Cc2ccccc2F)c([N+](=O)[O-])c1)N1CCCCCC1	inconclusive [inhibitor, partial curve, poor fit]
Cc1cc(C)c2c(c1)NC(c1cc3c(cc1Br)OCO3)C1CC=CC21 (stereo not drawn)	inconclusive [inhibitor, single point]
